The supplement of paper PMC10126150
Values marked as one replicate rest on one cluster of the flow cell; about a third of the high ones do not repeat.

System: ATP
Assay: switch fluorescence ratio, 500 uM ATP over buffer (Cy3 cluster intensity, sum of 5 cycles each) (fold (ratio)); higher = stronger signal-on switching upon ATP binding; sequences stand for … in TCGTCGGCAGCGTCAGATGTGTATAAGAGACAGTTTTTTTTTTTTTTTTTTTTTTTTT…TC
Settings: aptamer strand: ATP DNA aptamer (quencher-CACCTGGGGGAGTATTGCGGAGGAAGG + anchor), 100 nM annealed; ATP concentration: 500 uM; one replicate
Procedure, shortened: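 For every switch-domain sequence, the fluorescence ratio is the mean of per-cluster values, each being summed target-cycle Cy3 intensity over summed buffer-cycle Cy3 intensity. Clusters outside 100-1000 RFU were excluded. On a modified Illumina MiSeq flow-cell, the Cy3-labelled switching-strand clusters were annealed to 100 nM quencher-labelled ATP aptamer, imaged in selection buffer and then after 15 min with 500 uM ATP at 22 °C. Five such cycles were run, with NaOH stripping and re-annealing between them.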
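Further: ATP exposure 15 min at 22 °C before imaging.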

TCATGACGAA
switch fluorescence ratio: 1.03

AGGGCATCGT
switch fluorescence ratio: 1.04

GAGTGTTACG
switch fluorescence ratio: 1.05

CAAACTACAG
switch fluorescence ratio: 1.03

GTGTGAATGG
switch fluorescence ratio: 1.02

AGAGTGTGCG
switch fluorescence ratio: 1.06

GCGCGACGAT
switch fluorescence ratio: 1.06

GGGTGAAAT
switch fluorescence ratio: 0.998

AATCCGGTGG
switch fluorescence ratio: 0.946

GTCTCCTTGC
switch fluorescence ratio: 1.22

TCACGCAGGA
switch fluorescence ratio: 1.12

TAAGCGAACG
switch fluorescence ratio: 1.13

GAACATAGCG
switch fluorescence ratio: 0.999

TTTATAGTAG
switch fluorescence ratio: 1.04

GTGTACCCTA
switch fluorescence ratio: 1.05

AGAAATGGCC
switch fluorescence ratio: 1.02

ATCGGCGTTT
switch fluorescence ratio: 0.997

CGTTGTATGT
switch fluorescence ratio: 0.938

AACTGGTTCG
switch fluorescence ratio: 1.02

GCGTATGGGC
switch fluorescence ratio: 1.01

TACTCGCGTA
switch fluorescence ratio: 1.1

TCGGCATTGG
switch fluorescence ratio: 1.04

AATTGGCCTG
switch fluorescence ratio: 0.985

CCTACCCACG
switch fluorescence ratio: 1.43

AGTCCCTCGT
switch fluorescence ratio: 1.04

CGTCGTCGCG
switch fluorescence ratio: 1.03

AGTGGGAGTC
switch fluorescence ratio: 1.05

ATGCGGCGGG
switch fluorescence ratio: 0.984

CGTGGTTTGG
switch fluorescence ratio: 1

ACCCGGGGGC
switch fluorescence ratio: 1.33

AAAGTTGCAC
switch fluorescence ratio: 1.02

ACGAAAACTT
switch fluorescence ratio: 1.07

GTGCACGTGT
switch fluorescence ratio: 0.97

CAGATTTTGT
switch fluorescence ratio: 1.01

GTTACTGGCT
switch fluorescence ratio: 0.984

TTTCTATTA
switch fluorescence ratio: 1.03

TCAGTGCAAA
switch fluorescence ratio: 1.03

GTGATATCAT
switch fluorescence ratio: 1

CTATGTATAG
switch fluorescence ratio: 0.966

AGACAATTTA
switch fluorescence ratio: 1.03

ATGTCCACGT
switch fluorescence ratio: 0.975

ATTGCTTATC
switch fluorescence ratio: 0.985

ATATATCATG
switch fluorescence ratio: 1.04

AGAGGGTGGC
switch fluorescence ratio: 1.15

GGTAATGGAA
switch fluorescence ratio: 0.982

ACTGATGCTG
switch fluorescence ratio: 1.03

CTTAGCAACG
switch fluorescence ratio: 1.01

ACCAGTCAAC
switch fluorescence ratio: 1.04

TCGGCCCCGT
switch fluorescence ratio: 1.22

AGTGGACCCC
switch fluorescence ratio: 1.01

TACTAAATCG
switch fluorescence ratio: 1.03

GGTCGACGCA
switch fluorescence ratio: 0.988

ACTTCATCTG
switch fluorescence ratio: 1.57

ACAGTGACAC
switch fluorescence ratio: 1.06

GGCATACATG
switch fluorescence ratio: 1.02

TTTCTATTTC
switch fluorescence ratio: 1.07

AATCATCAGG
switch fluorescence ratio: 1.04

CCCTTAAGT
switch fluorescence ratio: 1

GTTTGGTAAT
switch fluorescence ratio: 0.99

CGCGGCGTGC
switch fluorescence ratio: 1.1

CAGATCGGTA
switch fluorescence ratio: 1.05

AGGGCAGAAC
switch fluorescence ratio: 1

AGATTTGCGC
switch fluorescence ratio: 1.01

CAGTGTGGGC
switch fluorescence ratio: 0.938

CATAGGATGC
switch fluorescence ratio: 1.03

CGCTAAGTTA
switch fluorescence ratio: 1.02

TAAGCATACA
switch fluorescence ratio: 1.09

ATTGGCCGCG
switch fluorescence ratio: 0.966

CTCTTAAATA
switch fluorescence ratio: 1.14

AGCGTAAGGG
switch fluorescence ratio: 1.04

ACACGGCTTA
switch fluorescence ratio: 1.03

CGTATTCAAG
switch fluorescence ratio: 0.996

AGGAGAGTA
switch fluorescence ratio: 0.958

TACAGGGCAG
switch fluorescence ratio: 1.03

GTGGCAGGCC
switch fluorescence ratio: 0.963

GCATTTATT
switch fluorescence ratio: 1.06

CTTGGTTGTT
switch fluorescence ratio: 1.03

GACTCTTAT
switch fluorescence ratio: 1.05

TTAACCCGGT
switch fluorescence ratio: 1.02

ACCAGCTACC
switch fluorescence ratio: 1.18

GCTAGCACAG
switch fluorescence ratio: 1.01

TACTTACGAG
switch fluorescence ratio: 1.05

AGGGGCCTCT
switch fluorescence ratio: 1.02

CTCACTGCT
switch fluorescence ratio: 1.02

TGGGGCTCCC
switch fluorescence ratio: 1.02

GTCCTAGTGT
switch fluorescence ratio: 1.05

CATGGCTGTG
switch fluorescence ratio: 1.01

TGACATCGTT
switch fluorescence ratio: 1.03

GGTACCGGCG
switch fluorescence ratio: 1.02

CTTTCACGTT
switch fluorescence ratio: 0.964

ACCTGTATCT
switch fluorescence ratio: 1.04

TTTTAATCAC
switch fluorescence ratio: 1

CAATGTGGCA
switch fluorescence ratio: 1.03

TGCCAAGGGC
switch fluorescence ratio: 1.03

AAGTCAACGA
switch fluorescence ratio: 0.967

CGCAAGGGGT
switch fluorescence ratio: 1.46

CGCCCTGCG
switch fluorescence ratio: 1.01

GGTTTGGTCC
switch fluorescence ratio: 0.973

GGGTTTAGCT
switch fluorescence ratio: 1.01

GGGGGACACG
switch fluorescence ratio: 0.97

GTCGGCATTC
switch fluorescence ratio: 1.06

TAGCTGTAGA
switch fluorescence ratio: 1.03

GGTAGCCAGT
switch fluorescence ratio: 0.978

CTTATAACGG
switch fluorescence ratio: 0.968

GAGGTGTAG
switch fluorescence ratio: 0.965

TCGGAGTTCT
switch fluorescence ratio: 1.02

TGTAAATAGG
switch fluorescence ratio: 0.971

CGATTAATAA
switch fluorescence ratio: 1.05

TGCAACGCCG
switch fluorescence ratio: 1.1

TAATAGGATG
switch fluorescence ratio: 0.995

TAGGTCGGCG
switch fluorescence ratio: 1.03

GATAGGTTAT
switch fluorescence ratio: 0.953

AGTAGGTCCC
switch fluorescence ratio: 1.02

TTTTGTACTC
switch fluorescence ratio: 0.99

TTCGTACT
switch fluorescence ratio: 1.02

CAATTAACGT
switch fluorescence ratio: 1.06

AGACGGTGGT
switch fluorescence ratio: 0.986

CTAGGCGA
switch fluorescence ratio: 1.08

CATACGTCG
switch fluorescence ratio: 1.02

CGTATGGGTA
switch fluorescence ratio: 0.987

CTGGAACCCA
switch fluorescence ratio: 1

CCTCTTCATG
switch fluorescence ratio: 1.24

GCAAACTCGG
switch fluorescence ratio: 1.15

CTTGTTATTT
switch fluorescence ratio: 0.971

CAGATGCATC
switch fluorescence ratio: 1.04

AGCGCGTAAG
switch fluorescence ratio: 1.02

CGTGGCATTC
switch fluorescence ratio: 1.55

GCCTTTTTCT
switch fluorescence ratio: 1.01

GCCAAAATG
switch fluorescence ratio: 0.982

TCGTCCGAAA
switch fluorescence ratio: 1.64

TTAACTTCCG
switch fluorescence ratio: 1.27

TTAAGGGCCT
switch fluorescence ratio: 1.01

CCGATTTGAG
switch fluorescence ratio: 1.04

TTGAGTTGCA
switch fluorescence ratio: 0.962

TAAGGGACAA
switch fluorescence ratio: 1

GTCAACTTAG
switch fluorescence ratio: 1.03

TCTGGAGGGA
switch fluorescence ratio: 2.23

ATAAAGACGG
switch fluorescence ratio: 1.02

TTTCGCGCGT
switch fluorescence ratio: 1.25

GGACGAGGCA
switch fluorescence ratio: 1.29

AGTCGACTGC
switch fluorescence ratio: 1.04

TATCAGGGA
switch fluorescence ratio: 1.02

GGGCATCGCT
switch fluorescence ratio: 1.02

GGCAGGCAAA
switch fluorescence ratio: 1.03

AATAAGCGG
switch fluorescence ratio: 0.994

ATGCCTGATG
switch fluorescence ratio: 0.97

GTCGAGGGTA
switch fluorescence ratio: 1.04

ACAGGATATA
switch fluorescence ratio: 1.02

TGATGGTAAC
switch fluorescence ratio: 1.01

TACCGGGCTG
switch fluorescence ratio: 1.01

GGTGACCTTT
switch fluorescence ratio: 0.946

GAGGTCTTGG
switch fluorescence ratio: 0.971

AGGCGTGGT
switch fluorescence ratio: 1.04

ATAAGTGTGA
switch fluorescence ratio: 0.997

ACATGTTGAA
switch fluorescence ratio: 1

TATGCAGTGG
switch fluorescence ratio: 1.04

GTCCATTGTT
switch fluorescence ratio: 0.978
